Experimental data from PubChem BioAssay AID1159614 (National Center for Advancing Translational Sciences (NCATS), 2016).
Among all 45,000 compounds or so, about 65 (0.1%) were called active. Calls come from the whole dose curve; as a rule, active = well fitted activation curve with a large enough effect; inconclusive = small, poorly fitted or top-dose-only effect; inactive = no such curve, though single readings can be large or run the other way. This is one part of the list.

Target: Galactocerebrosidase (Homo sapiens) (UniProt P54803)
Chain of UniProt P54803 (P54803 whole entry, looked up): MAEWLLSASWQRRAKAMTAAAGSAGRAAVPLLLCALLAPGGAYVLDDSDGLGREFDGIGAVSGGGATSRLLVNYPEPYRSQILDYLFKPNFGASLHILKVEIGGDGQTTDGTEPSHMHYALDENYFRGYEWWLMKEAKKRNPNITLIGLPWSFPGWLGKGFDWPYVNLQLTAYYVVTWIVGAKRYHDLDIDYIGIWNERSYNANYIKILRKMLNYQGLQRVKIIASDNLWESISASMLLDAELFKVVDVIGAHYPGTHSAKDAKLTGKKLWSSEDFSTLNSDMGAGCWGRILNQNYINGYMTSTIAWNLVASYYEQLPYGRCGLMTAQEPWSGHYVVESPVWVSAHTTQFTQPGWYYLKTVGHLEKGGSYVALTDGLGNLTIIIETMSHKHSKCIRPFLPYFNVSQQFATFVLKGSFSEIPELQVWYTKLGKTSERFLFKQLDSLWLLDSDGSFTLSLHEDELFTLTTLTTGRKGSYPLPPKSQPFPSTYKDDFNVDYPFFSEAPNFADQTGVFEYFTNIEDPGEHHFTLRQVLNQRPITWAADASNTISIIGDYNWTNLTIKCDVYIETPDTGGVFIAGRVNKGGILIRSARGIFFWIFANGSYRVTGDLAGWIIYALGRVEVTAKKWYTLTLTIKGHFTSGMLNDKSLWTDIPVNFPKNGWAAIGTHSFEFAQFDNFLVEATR
Assay: A Novel Cell-Based Assay to Identify Small Molecules for B -Galactocerebrosidase; note: 0% is about no effect; nearly all actives have a fitted effect of over 65% in size
Settings: 145M-Twi-hGALC-G270D cells (Twitcher mouse brain line with human GALC G270D), HMU-beta-Gal fluorescence, 48 h; series mostly up to 57.5 µM; activation: at the top concentration
Outline: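 Fluorescence readout: HMU-β-gal cleavage by mutant GALC (0.1 mM final, citrate/phosphate pH 5.2 with 1 mg/mL taurocholate), stopped with carbonate/bicarbonate plus Triton X-100. Cells: murine Twitcher 145M-Twi expressing human G270D GALC; qHTS for activators.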

activation, inactive:
COc1ccc2c(c1)c1c(c(=O)n(-c3ccc(F)c(Cl)c3)c(=O)n1CC(N)=O)n2C -6.9%, CCOc1ccc(-c2c(C)nn3c(C)c(C(=O)NCCc4ccccc4)cnc23)cc1OCC -24.2%, CCC1CN(C(=O)Nc2cccc(OC)c2)c2ccccc2O1 (stereo unspecified) -1.23%, CC(=O)Nc1ccc(S(=O)(=O)NC2(C(F)(F)F)NC(=O)N(c3ccccc3F)C2=O)cc1 (stereo unspecified) -14.7%, COc1cccc2c1cc1c(=O)n(CC(=O)O)nc(C)n12 -5.48%, COc1ccc(-n2c(=O)c3ccc(C(=O)NCc4ccc(C)cc4)cc3n(Cc3cccc(Cl)c3)c2=O)cc1 -11.7%, Cc1ccc2c(c1)cc1c(=O)n(Cc3ccc(Cl)cc3)nc(C)n12 -1.75%, COc1cccc(-c2cc(C(=O)Nc3ccc(Br)c(C)c3)[nH]n2)c1 -20.3%, CCOc1ccc(C2C(C(=O)Nc3ccccc3OC)=C(C)Nc3c(C(=O)Nc4cccc(C)c4)cnn32)cc1 (stereo unspecified) -11.7%, CC1CCCCN1S(=O)(=O)c1cc2c(=O)nc3ccccn3c2cc1Cl (stereo unspecified) -6.39%, O=C1CC(c2nnc(Cc3cccc(Cl)c3)o2)CN1c1ccccc1 (stereo unspecified) -8.96%, CCn1c(CC2C(=O)Nc3ccccc32)nc2ccccc2c1=O (stereo unspecified) -13.2%, Cc1cccc(C)c1NS(=O)(=O)c1ccc2c(c1)[C@H]1C=CC[C@H]1[C@@H](c1ccc(Cl)cc1)N2 -11.8%, COc1ccc(CN(Cc2ccco2)C(=O)c2ccccc2F)cc1 -15.9%, CCOC(=O)c1sc(NC(=O)C(C)Sc2nc(-c3ccccc3)cc(C(F)(F)F)n2)c(C(=O)OC)c1C (stereo unspecified) 3.29%, CCOc1ccc(C(=O)Nc2ccc(-c3nc4cc(C)ccc4o3)cc2)cc1 14%, CCc1nnc2c3ccccc3nc(Nc3ccccc3OC)n12 -10.5%, Cc1cccc(N2CCN(S(=O)(=O)c3ccc4oc(=O)c5ncn(C)c5c4c3)CC2)c1C -3.51%, O=C(CCCCn1c(=O)c2ccccc2n(CC(=O)Nc2ccccc2)c1=O)NCc1ccccc1Cl -17.3%, CCN(CC)CCCNC(=O)C1CCN(S(C)(=O)=O)CC1 -12%, Cc1c(C)n(Cc2ccccc2)c2ccc(C(=O)NCc3ccc(OC(C)C)cc3)cc12 5.18%, COc1ccc(Nc2nc3ccc(Cl)cc3n3nnnc23)cc1OC -18.8%, Cc1oc(-c2ccc(C(=O)Nc3cccc(C(F)(F)F)c3)cc2)nc1CSc1ccccc1 -14.9%, O=C(Oc1ccccc1Cl)c1cc(-c2ccc3c(c2)OCCO3)on1 -9.17%, CCCC(=O)C1=C(c2ccc(C)cc2)N(C(=O)CCC)n2cnnc2S1 -38.2%, COc1ccc(-c2nc3scc(CCNS(=O)(=O)c4ccc(F)c(C(F)(F)F)c4)n3n2)cc1OC -10.8%, COC(=O)c1scc(-c2ccc(C)cc2)c1S(=O)(=O)Nc1cccc(Cl)c1C -44.8%, Cc1n[nH]c(C)c1CCc1nc2c3ccccc3nc(SCC(=O)Nc3ccc(F)cc3)n2n1 -13.9%, Cc1ccc(OCCn2cc(C(=O)c3ccco3)c3ccccc32)cc1C -12.4%, Cc1ccc(NC(=O)c2cnc(N3CCCCC3)c3ccccc23)cc1Cl -10.3%, O=C(CCCc1nc(-c2ccccc2)no1)Nc1cc(C(F)(F)F)cc(C(F)(F)F)c1 -7.58%, COc1ccc(NC(=O)COc2ccc(S(=O)(=O)NC3CCCCC3)cc2)c(OC)c1 -10.3%, COc1ccc(-c2nc3nc(C)cc(Nc4cccc(C(F)(F)F)c4)n3n2)cc1 -24.5%, Cc1ccc(CNC(=O)Cn2cc(S(=O)(=O)Cc3cccc(Cl)c3)c3ccccc32)cc1 -2.29%, Cc1sc(-n2cccc2)c(C(C)NC(=O)Nc2ccccc2Cl)c1C (stereo unspecified) -3.7%, CCOc1ccc(NC(=O)c2cc(S(=O)(=O)N3CCCC3)c[nH]2)cc1 -20.7%, CC1=C(C(=O)Nc2ccccc2C)C(c2ccco2)n2ncnc2N1 (stereo unspecified) -17.3%, Cc1noc(Cn2c(=O)c3ccccc3n(CC(=O)Nc3ccc(F)cc3F)c2=O)n1 25.6%, Cc1cc(C)c(Cn2c3ccccc3c3cnn(CC(=O)NCc4ccc(Cl)cc4)c(=O)c32)c(C)c1 -5.2%, O=C(Nc1nnc(S(=O)(=O)N2CCCCC2)s1)c1ccc(F)cc1 -21.9%, CCOc1ccc(CCNC(=O)c2ccc3c(c2)N(Cc2ccccc2)C(=O)c2ccccc2S3=O)cc1OCC (stereo unspecified) -7.56%, COc1ccc(-c2c(C#N)c(SCC(=O)Nc3ccc(Br)cc3)nc(C)c2C(=O)Nc2ccccc2)cc1 -18.7%, O=C(CN(c1cc(C(F)(F)F)ccc1Cl)S(=O)(=O)c1ccccc1)NCCc1ccccc1 -6.35%, COC(=O)c1ccccc1NC(=O)c1cc2c(s1)-c1ccccc1OC2 -10.2%, CC1=C(C(=O)N2CCCCC2)C(c2cccc(Cl)c2)n2c(nc3ccccc32)N1 (stereo unspecified) -41.9%, Cc1cc(C)c(S(=O)(=O)NCCc2cc3ccc(C)cc3[nH]c2=O)c(C)c1 -10.8%, O=C(CSc1nc(-c2ccccc2)c2ccccc2n1)Nc1ccc(F)cc1 -12.2%, Cc1nn2c(=O)cc(COC(=O)c3ccc(NC(=O)COc4ccc(Cl)cc4)cc3)nc2s1 -11.9%, COc1ccc(OC)c(CNC(=O)c2cc3ccc4cccnc4c3[nH]2)c1 -11.2%, CC(C)(C)OC(=O)N1CCC(c2nnc(SCc3ccccc3F)o2)CC1 -25.9%, O=C(Cn1nnc2sc(-c3ccccc3)cc2c1=O)Nc1cccc(C(F)(F)F)c1 -7%, CCOc1ccc(CCNc2ncnc3onc(-c4ccc(Cl)cc4)c23)cc1 -23%, COc1ccc(C)cc1NC(=O)C(=O)NCCc1csc2nc(-c3ccccc3F)nn12 1.35%, O=c1c2oc3ccccc3c2n(Cc2ccccc2)c(=O)n1Cc1ccco1 -4.61%, CC1CCN(S(=O)(=O)c2ccc3nc(NCc4ccc(F)cc4)ccc3c2)CC1 -16.1%, CCn1nnc2cc(C(=O)Nc3ccc(C)cc3Br)ccc21 0.811%, Cc1ccccc1Nc1c(-c2c[nH]c3ccccc23)nc2ccccn12 -2.78%, Cc1oc(-c2ccccc2)nc1CNC(=O)NC1CCCCC1 -5.44%, CCc1ccc(NC(=O)c2sc3nc(C)c(C(=O)Nc4ccc(C)cc4C)c(-c4ccco4)c3c2N)cc1 -25%, COc1ccc(Nc2sc(C(=O)c3ccccc3)c(N)c2C(=O)Nc2cc(C)ccc2C)c(OC)c1 -18.7%, Cc1ccn2c(c1)nc(=O)c1cc(S(=O)(=O)N3CCCCC3)c(Cl)cc12 -12.9%, Cc1c(NC(=O)c2cc(-c3ccc(Br)cc3)on2)c(=O)n(-c2ccccc2)n1C -25.1%, CCc1ccccc1NC(=O)CN(c1ccc(OC)cc1)S(=O)(=O)c1c(C)n[nH]c1C -7.12%, Cc1cccc(-c2nc3scc(CCNS(=O)(=O)c4ccc(F)cc4C)n3n2)c1 -4.52%, Cc1ccc(NC(=O)c2cc(S(=O)(=O)NCCC3=CCCCC3)ccc2F)cc1C -11.7%, CCN1C(=O)c2ccccc2S(=O)c2ccc(C(=O)N3CCN(c4ccccc4)CC3)cc21 (stereo unspecified) -12.4%, Cc1ccc(S(=O)(=O)c2nnn3c2nc(N2CCC(C)CC2)c2cc(Cl)ccc23)cc1C -11.7%, CCOC(=O)c1c(NC(=O)/C=C/c2ccc(OCC)c(OC)c2)sc2c1CCC2 -9.59%, COc1cccc(CNC(=O)CCCN2C(=O)CSc3c2c(C)nn3-c2ccccc2)c1OC -11.4%, CCn1c(NCc2ccc(OC)c(OC)c2)nc2ccccc21 -25.2%, Cc1cccc(NC(=O)CN2C(=O)c3ccccc3Sc3ncccc32)c1C -12%, COc1ccccc1C(=O)OCc1cc(=O)n2nc(C3CCCCC3)sc2n1 -16.6%, Cc1cccc(CCNC(=O)C2CCN(c3ncnc4c3nc3n4CCCCC3)CC2)c1 -4.93%, CCOc1ccccc1CNC(=O)c1ccc2c(c1)sc1nc(-c3ccccc3)cn12 -18.4%, Cc1ccc(Cl)cc1N1CCN(CCCNc2ncnc3onc(-c4ccc(Cl)cc4)c23)CC1 -21.2%, Cc1noc2ncnc(N3CCCC(C(=O)NC(C)C)C3)c12 (stereo unspecified) -10.3%, COc1ccc(CCNC(=O)CSC2=Nc3ccccc3C3=NC(CCC(=O)NCc4ccccc4)C(=O)N23)cc1OC (stereo unspecified) -9.34%, CCOC(=O)c1cc(-c2ccccc2)n(CCC(=O)Nc2cc(OCC)ccc2OCC)c1C -4.99%, COc1ccc(NC(=O)c2ccc(NC(=O)CCS(=O)(=O)c3cccs3)cc2)cc1OC -8.39%, CCCCCn1c(CCCNC(=O)c2cccc(C)c2)nc2ccccc21 -11.1%, O=C(CCC(=O)N1CC2CCCN2c2ccccc21)NCc1cccc(Cl)c1 (stereo unspecified) -20.9%, COc1cc2c(=O)n(Cc3ccccc3Cl)c(=O)n(CC(=O)Nc3ccccc3)c2cc1OC -8.55%, C#C[C@]1(O)CC[C@H]2[C@@H]3CCC4=CC(=O)CC[C@@H]4[C@H]3CC[C@@]21CC -15.4%, COc1cccc(-n2c(-c3ccc(Cl)cc3)cc3c2CC(C)(C)CC3=O)c1 -15.4%, O=C(Nc1ccc(F)cc1F)C(Cc1ccccc1)N1Cc2ccccc2C1=O (stereo unspecified) -18.1%, COc1ccc(C)cc1NC(=O)C1CCN(S(=O)(=O)c2c(C)noc2/C=C/c2ccco2)CC1 -19.7%, CCOc1ccc(NC(=O)CCC(=O)N2CC(C)Oc3ccc(C)cc32)cc1 (stereo unspecified) -7.17%, COc1ccc(CN2C(=O)c3oc4ccc(F)cc4c(=O)c3C2c2ccc(O)cc2)cc1 (stereo unspecified) -16.2%, Cc1ccc(C(=O)Nc2nc3ccc(S(=O)(=O)N4CCCC4)cc3s2)cc1 0.658%, Cc1ccc(-c2nnc(SCC(=O)NC3CCCC3)nc2-c2ccc(C)cc2)cc1 -16%, Cc1nc(N2CCOCC2)c2c(C(=O)NCCc3ccccc3)c(C)oc2n1 -5.52%, CCCCn1cc2c(c1-c1ccccc1Br)c(=O)n(C)c(=O)n2C -17%, O=C(/C=C/c1ccccc1)NCCO 6.44%, Cc1ccc(C(=O)n2nc(-c3ccco3)nc2NCc2cccs2)cc1 -12%, CCN(CC)CCNC(=O)c1nn(-c2ccc(OC)c(Cl)c2)c(=O)c2c1c1ccccc1n2C -8.1%, CN(C)S(=O)(=O)n1cc(/C=C(\NC(=O)c2ccccc2Cl)C(=O)NCCCn2ccnc2)c2ccccc21 11.5%
